Here are results for 112 variants from the RNAGym collection of RNA variant scans (doi:10.7554/elife.90254).

Read counts are not given, so values of variants with three or more changes are uncertain.

First the molecules themselves.
B1: LINE1-mini (parent)
chain: GGCAGAGCUCAACACAGCGUGGCAAAGUGGCUGUGGCUAGACUGCC

The series covers variants of B1. The series is described as follows: self-cleavage, relative activity (ratio to wild type); higher = more cleavage; in vitro, sequencing; the parent is a self-cleaving ribozyme.
With GGCAGAGCUCAACACAGCGUGGCAAAGUGGCUAAGGCUAGAUUGCC, the self-cleavage came out at 0.07.
Next, GGCAGAGCUCAACACAGCGUGGCAAAGUGGCGAUGGCUAGACUCGC: 0.05.
Regarding GGCAGAGCUCAACACAGCGUGGCAAAGUGGCUUUGGCUAGGAUGCA, the self-cleavage was 0.03.
As for GGCAGAGCUCAACACAGCGUGGCAAAGUGGCAGUGGCUAGACAUCC, the self-cleavage was determined as 0.04.
Next, GGCAGAGCUCAACACAGCGUGGCAAAGUGGCUAUGGCUAUACUUGC: 0.07.
As to GGCAGAGCUCAACACAGCGUGGCAAAGUGGCGGUGGCUCGACUCCA, the self-cleavage is 0.03.
Next, GGCAGAGCUCAACACAGCGUGGCAAAGUGGCUGAGGCUAGAGUGCA: 0.03; GGCAGAGCUCAACACAGCGUGGCAAAGUGGCGGUGGAUAGGCUGCC: 0.01; GGCAGAGCUCAACACAGCGUGGCAAAGUGGCUUUGCCUCGACUGCC: 0.01.
For GGCAGAGCUCAACACAGCGUGGCAAAGUGGCGGUGGCUAGACCACC the value was 0.02; for GGCAGAGCUCAACACAGCGUGGCAAAGUGGCUUUGGCUAAACUGCG, 0.28; for GGCAGAGCUCAACACAGCGUGGCAAAGUGGCUCUGGCUAUACUGCA, 0.07.
For GGCAGAGCUCAACACAGCGUGGCAAAGUGGCUUUCGGUAGACUGCU, the self-cleavage amounted to 0.
For GGCAGAGCUCAACACAGCGUGGCAAAGUGGCUUUGGCGAGAAUGCC the value was 0.08.
Next, GGCAGAGCUCAACACAGCGUGGCAAAGUGGCUUUGGCUAUACUGUC: 0.07; GGCAGAGCUCAACACAGCGUGGCAAAGUGGCCCUGGCUCGACUGCC: 0.07.
Next, GGCAGAGCUCAACACAGCGUGGCAAAGUGGCUCUGGGUAGCCUGCC: 0.05; GGCAGAGCUCAACACAGCGUGGCAAAGUGGCUUUGUCUAGAGUGCC: 0.02; GGCAGAGCUCAACACAGCGUGGCAAAGUGGCUUUGUCUAGAUUGCC: 0.04.
Consider GGCAGAGCUCAACACAGCGUGGCAAAGUGGCGGUAGCUACACUGCC, for which the self-cleavage was 0.19.
For GGCAGAGCUCAACACAGCGUGGCAAAGUGGCUGAGGUUAGGUUGCC the value was 0.03.
Next, GGCAGAGCUCAACACAGCGUGGCAAAGUGGCUAUGGAAAUACUGCC: 0.03.
Next, GGCAGAGCUCAACACAGCGUGGCAAAGUGGCUUUGGCUAGAAUUCA: 0.05.
On to GGCAGAGCUCAACACAGCGUGGCAAAGUGGCUUUGGGUAGCCUGCC, for which the self-cleavage is 0.03.
For GGCAGAGCUCAACACAGCGUGGCAAAGUGGCCGUGGCUGGACUCCC the value was 0.12; for GGCAGAGCUCAACACAGCGUGGCAAAGUGGCUAUGGCUAGGAUGCC, 0.06.
Next, GGCAGAGCUCAACACAGCGUGGCAAAGUGGCUAUGUCUCGACUGCC: 0.02; GGCAGAGCUCAACACAGCGUGGCAAAGUGGCCGCGGAUAUACUGCC: 0.06.
For GGCAGAGCUCAACACAGCGUGGCAAAGUGGCGGUGGAUAGACUGUC the value was 0.02; for GGCAGAGCUCAACACAGCGUGGCAAAGUGGCUCUGGAUAGACUGCA, 0.
Take GGCAGAGCUCAACACAGCGUGGCAAAGUGGCUAUUGCUAGACUGCG: the self-cleavage stood at 0.02.
For GGCAGAGCUCAACACAGCGUGGCAAAGUGGCUGAGGUUAGAGUGCC the value was 0.03.
Next, GGCAGAGCUCAACACAGCGUGGCAAAGUGGCUAUGGCUAGAAUUCC: 0.03.
Next, GGCAGAGCUCAACACAGCGUGGCAAAGUGGCGGAGGCUGGACUGAC: 0.01.
On to GGCAGAGCUCAACACAGCGUGGCAAAGUGGCGGUGGCUAGACAGCG, for which the self-cleavage was found to be 0.05.
Consider GGCAGAGCUCAACACAGCGUGGCAAAGUGGCUCUGGCUAGCUUGCC, for which the self-cleavage was 0.04.
Consider GGCAGAGCUCAACACAGCGUGGCAAAGUGGCAGUGGCUACAGUGCC, for which the self-cleavage was found to be 0.11.
For the variant GGCAGAGCUCAACACAGCGUGGCAAAGUGGCGGUGGUAAGACUGCC, the self-cleavage amounted to 0.03.
Next, GGCAGAGCUCAACACAGCGUGGCAAAGUGGCAGUUGCUAUACUGCC: 0.01; GGCAGAGCUCAACACAGCGUGGCAAAGUGGCAGUUCCUAGACUGCC: 0.04; GGCAGAGCUCAACACAGCGUGGCAAAGUGGCAGUGACUAGACUGCU: 0.16.
For GGCAGAGCUCAACACAGCGUGGCAAAGUGGCAGUAGCUGGACUGCC the value was 0.03; for GGCAGAGCUCAACACAGCGUGGCAAAGUGGCUGAAGCUAGACUGUC, 0.05; for GGCAGAGCUCAACACAGCGUGGCAAAGUGGCCCUGGCUAGACUGGC, 0.01.
For GGCAGAGCUCAACACAGCGUGGCAAAGUGGCUUUGGCAAAACUGCC the value was 0.08.
On to GGCAGAGCUCAACACAGCGUGGCAAAGUGGCUUUGGCAACACUGCC, for which the self-cleavage was 0.03.
Next, GGCAGAGCUCAACACAGCGUGGCAAAGUGGCAGUGACUACACUGCC: 0.08; GGCAGAGCUCAACACAGCGUGGCAAAGUGGCUCUGUCUAGAUUGCC: 0.05; GGCAGAGCUCAACACAGCGUGGCAAAGUGGCUUUGGCGAGACCGCC: 0.01.
GGCAGAGCUCAACACAGCGUGGCAAAGUGGCUGAGGCUAGACUACG: the self-cleavage came to 0.01.
For GGCAGAGCUCAACACAGCGUGGCAAAGUGGCUUUGGCUAGACAACC the value was 0.08.
For GGCAGAGCUCAACACAGCGUGGCAAAGUGGCAGUGGCUAGACUAGC the value was 0.03.
Next, GGCAGAGCUCAACACAGCGUGGCAAAGUGGCAGUCCCUAAACUACC: 0.03.
With GGCAGAGCUCAACACAGCGUGGCAAAGUGGCCGUGGAUAUACUGCU, the self-cleavage was determined as 0.33.
On to GGCAGAGCUCAACACAGCGUGGCAAAGUGGCAGCGGCUAGACUGCA, for which the self-cleavage was determined as 0.08.
For the variant GGCAGAGCUCAACACAGCGUGGCAAAGUGGCUAUGGAUAGAAUGCC, the self-cleavage came out at 0.04.
For GGCAGAGCUCAACACAGCGUGGCAAAGUGGCUCUGGUUAGACGGCC the value was 0; for GGCAGAGCUCAACACAGCGUGGCAAAGUGGCUAUGUAUAGACCGCC, 0.02; for GGCAGAGCUCAACACAGCGUGGCAAAGUGGCCGUGUAUAGACUGCC, 0.27.
Consider GGCAGAGCUCAACACAGCGUGGCAAAGUGGCAUUUGUUAGACUGCC, for which the self-cleavage is 0.07.
Next, GGCAGAGCUCAACACAGCGUGGCAAAGUGGCUAUGCCUAGACUGUC: 0.03; GGCAGAGCUCAACACAGCGUGGCAAAGUGGCGGUCGAUAGACUGCC: 0.04; GGCAGAGCUCAACACAGCGUGGCAAAGUGGCAGUGGCUAAACUGUC: 0.29.
Next, GGCAGAGCUCAACACAGCGUGGCAAAGUGGCUUUGGUUAUACUCCC: 0.23; GGCAGAGCUCAACACAGCGUGGCAAAGUGGCCGUGGCUAGACUGGA: 0.11.
Next, GGCAGAGCUCAACACAGCGUGGCAAAGUGGCUUUGGCUAAACUGAC: 0.04.
Consider GGCAGAGCUCAACACAGCGUGGCAAAGUGGCUUUGUCUAGACAGCC, for which the self-cleavage was found to be 0.01.
With GGCAGAGCUCAACACAGCGUGGCAAAGUGGCUAUGGCUAUACUGCG, the self-cleavage is 0.06.
Next, GGCAGAGCUCAACACAGCGUGGCAAAGUGGCCAUGGCUAGACUCCC: 0.11.
For GGCAGAGCUCAACACAGCGUGGCAAAGUGGCUAUGGCUUGACGGCC the value was 0.02.
Next, GGCAGAGCUCAACACAGCGUGGCAAAGUGGCGGUUGCUAGAAUGCC: 0.12; GGCAGAGCUCAACACAGCGUGGCAAAGUGGCUUCGUCUAGACUGCC: 0.06; GGCAGAGCUCAACACAGCGUGGCAAAGUGGCCCUGGCUAGACAGCC: 0.01.
With GGCAGAGCUCAACACAGCGUGGCAAAGUGGCUUUGGCGAUACUGCC, the self-cleavage turned out to be 0.02.
Next, GGCAGAGCUCAACACAGCGUGGCAAAGUGGCUGAGGCUUGACUGCU: 0.03; GGCAGAGCUCAACACAGCGUGGCAAAGUGGCUGAGGCUUGACUGCG: 0.04.
Next, GGCAGAGCUCAACACAGCGUGGCAAAGUGGCUAUGACUAGCCUGCC: 0.04.
For GGCAGAGCUCAACACAGCGUGGCAAAGUGGCCGUGGCUACACUUCU the value was 0.02.
As for GGCAGAGCUCAACACAGCGUGGCAAAGUGGCCGUGACAAGACUGCC, the self-cleavage is 0.04.
For GGCAGAGCUCAACACAGCGUGGCAAAGUGGCGCUCGCUAGACUGCC the value was 0.06; for GGCAGAGCUCAACACAGCGUGGCAAAGUGGCUGAGGCUAGUCUCCC, 0.05.
Next, GGCAGAGCUCAACACAGCGUGGCAAAGUGGCGGUGGCUAGCCUUCG: 0.04.
Next, GGCAGAGCUCAACACAGCGUGGCAAAGUGGCUGAGGCAAGGCUGCC: 0.04; GGCAGAGCUCAACACAGCGUGGCAAAGUGGCGGUGGCGAGACUGGC: 0.05; GGCAGAGCUCAACACAGCGUGGCAAAGUGGCUAUGGUUGGACUGCC: 0.02.
As for GGCAGAGCUCAACACAGCGUGGCAAAGUGGCUAUGACUACACUGCC, the self-cleavage was 0.1.
For GGCAGAGCUCAACACAGCGUGGCAAAGUGGCUGAGGCAAGACUCCC the value was 0.01; for GGCAGAGCUCAACACAGCGUGGCAAAGUGGCUCGGGCUAGAUUGCC, 0.02.
Next, GGCAGAGCUCAACACAGCGUGGCAAAGUGGCUAUGGCUAGCCUGAC: 0.04; GGCAGAGCUCAACACAGCGUGGCAAAGUGGCUACGGCUAGAGUGCC: 0.07; GGCAGAGCUCAACACAGCGUGGCAAAGUGGCUCUGGCUAGGCUGCG: 0.04.
GGCAGAGCUCAACACAGCGUGGCAAAGUGGCGGCGGCUAGAGUGCC: the self-cleavage was 0.1.
For GGCAGAGCUCAACACAGCGUGGCAAAGUGGCGGUGGCUAGAAGGCC the value was 0.03.
For the variant GGCAGAGCUCAACACAGCGUGGCAAAGUGGCAGUGUCUAGAAUGCC, the self-cleavage was 0.2.
For GGCAGAGCUCAACACAGCGUGGCAAAGUGGCUUUGUCCAGACUGCC the value was 0.02.
For GGCAGAGCUCAACACAGCGUGGCAAAGUGGCUUUGGCAAGAAUGCC the value was 0.29.
For GGCAGAGCUCAACACAGCGUGGCAAAGUGGCUAUGGCUGGUCUGCU the value was 0.24; for GGCAGAGCUCAACACAGCGUGGCAAAGUGGCAGUGGCGAGAUUGCC, 0.
With GGCAGAGCUCAACACAGCGUGGCAAAGUGGCAGUGCCUAGACAACC, the self-cleavage turned out to be 0.01.
For GGCAGAGCUCAACACAGCGUGGCAAAGUGGCUGAUGCUGGACUGCC the value was 0.15; for GGCAGAGCUCAACACAGCGUGGCAAAGUGGCUAAGGCUAGCCUGCC, 0.03.
For GGCAGAGCUCAACACAGCGUGGCAAAGUGGCUCUGGCUAGAAUGCG the value was 0; for GGCAGAGCUCAACACAGCGUGGCAAAGUGGCUAUGACUAGACUGCA, 0.06; for GGCAGAGCUCAACACAGCGUGGCAAAGUGGCAGAGGCUAGACUGUC, 0.02.
On to GGCAGAGCUCAACACAGCGUGGCAAAGUGGCUAAGGCUUGACUUCC, for which the self-cleavage came out at 0.19.
For GGCAGAGCUCAACACAGCGUGGCAAAGUGGCGGUGGCUUCACUGCC the value was 0.02; for GGCAGAGCUCAACACAGCGUGGCAAAGUGGCUCUGGACAGACUGCC, 0.03; for GGCAGAGCUCAACACAGCGUGGCAAAGUGGCUAUGGCUAGAGCGCC, 0.02.
Next, GGCAGAGCUCAACACAGCGUGGCAAAGUGGCAGUAACUAGACUGCC: 0.08; GGCAGAGCUCAACACAGCGUGGCAAAGUGGCGGUGGCUACAUUUCC: 0.04.
For GGCAGAGCUCAACACAGCGUGGCAAAGUGGCAGCGGCUAGAUUGCC the value was 0.05; for GGCAGAGCUCAACACAGCGUGGCAAAGUGGCGGUGGAAAGACUGCC, 0.03.
